Measured values: the antibiotic and cytotoxicity screens of Wong et al. (2023)
The list shows a part of the results.

Each compound was assayed on HepG2 (assay: cytotoxicity call (relative viability < 0.9)). Settings: 10 µM.

SMILES | cytotoxicity call
Cn1c(=O)c(=O)n(C)c2cc(S(=O)(=O)N3CCOCC3)ccc21 | inactive
CCS(=O)(=O)Nc1ccc2c(c1)C(=O)N(C)C[C@@H](OC)[C@H](C)CN(Cc1ccccn1)[C@@H](C)CO2 | inactive
COc1ccc(CCNC(=O)[C@@]2(Sc3ccc(C)cc3)CC(=O)N(C3CCCCC3)[C@@H]2c2ccc(CO)cc2I)cc1 | inactive
C[C@@H]1CCCCO[C@@H](CN(C)C(=O)Cc2ccccc2)[C@@H](C)CN([C@@H](C)CO)C(=O)c2cc(NC(=O)Nc3ccc(F)cc3)ccc2O1 | inactive
COCC#Cc1ccc2c(c1)O[C@@H](CN(C)C(=O)c1ccccc1)[C@@H](C)CN([C@H](C)CO)S2(=O)=O | inactive
C[C@H]1CN([C@@H](C)CO)C(=O)c2cc(NS(=O)(=O)c3ccccc3)ccc2O[C@@H]1CN(C)CC1CC1 | inactive
CN(c1ccc(N)cc1[N+](=O)[O-])S(C)(=O)=O | inactive
C[C@H]1CN([C@@H](C)CO)C(=O)c2cccc(NC(=O)C3CCOCC3)c2O[C@H]1CN(C)C(=O)NC1CCCCC1 | inactive
C[C@@H]1CN([C@@H](C)CO)S(=O)(=O)c2ccc(-c3ccncc3)cc2O[C@@H]1CN(C)S(=O)(=O)c1ccccc1F | inactive
Cc1ccc(S(=O)(=O)Nc2ccc3c(c2)CC(=O)N([C@H](C)CO)C[C@@H](C)[C@H](CN(C)C(=O)Nc2ccc(C(F)(F)F)cc2)O3)cc1 | inactive
Cc1ccc(S(=O)(=O)Nc2ccc3c(c2)C(=O)N([C@@H](C)CO)C[C@@H](C)[C@@H](CN(C)C(=O)NC2CCCCC2)OCCCC[C@@H](C)O3)cc1 | inactive
C[C@H]1CN([C@@H](C)CO)C(=O)c2cccc(NC(=O)Nc3ccccc3)c2O[C@H]1CN(C)C(=O)Nc1ccc(C(F)(F)F)cc1 | inactive
C[C@@H]1CCCCO[C@@H](CN(C)C(=O)CCC(F)(F)F)[C@@H](C)CN([C@@H](C)CO)C(=O)c2cc(NS(=O)(=O)c3cccs3)ccc2O1 | inactive
CO[C@@H](CN(C)C(=O)C1CCOCC1)[C@@H](C)CN(C(=O)Nc1ccc(C(F)(F)F)cc1)[C@H](C)CO | inactive
C[C@@H]1CN([C@H](C)CO)C(=O)c2cccc(NC(=O)C3CCOCC3)c2O[C@H]1CN(C)Cc1ccc(Oc2ccccc2)cc1 | inactive
C[C@@H]1CN([C@@H](C)CO)C(=O)CCCn2nncc2CO[C@H]1CN(C)C(=O)Nc1ccc2c(c1)OCO2 | inactive
C[C@@H]1CN([C@H](C)CO)C(=O)c2cc(NC(=O)NC3CCCCC3)ccc2O[C@H]1CN(C)S(=O)(=O)c1cn(C)cn1 | inactive
COc1ccc(NC(=O)N(C)C[C@@H]2OCCCC[C@@H](C)Oc3ccc(NS(=O)(=O)c4ccc(C)cc4)cc3C(=O)N([C@@H](C)CO)C[C@@H]2C)cc1 | inactive
C[C@H](CO)N1C[C@H](C)[C@@H](CN(C)S(=O)(=O)c2cccs2)OCCCC[C@H](C)Oc2ccc(NC(=O)c3ccccc3)cc2C1=O | inactive
CN(C)CC#Cc1ccc([C@@H]2[C@@H](CO)N3C(=O)CN(C(=O)CN(C)C)C[C@@H]23)cc1 | inactive
CC(C)CN1C(=O)[C@@]2(Cc3ccccc31)c1ccccc1C(=O)N(Cc1ccccc1Cl)[C@H]2c1ccc(CO)cc1 | inactive
C[C@@H]1CCCCO[C@H](CN(C)C)[C@H](C)CN([C@H](C)CO)C(=O)c2cc(NC(=O)Nc3ccc(C(F)(F)F)cc3)ccc2O1 | active
C[C@@H]1CN([C@@H](C)CO)C(=O)c2cc(C#Cc3ccccn3)cnc2O[C@H]1CN(C)C(=O)CCN1CCCCC1 | inactive
C[C@@H]1CCCCO[C@@H](CN(C)C(=O)c2ccccc2)[C@@H](C)CN([C@H](C)CO)C(=O)c2cc(NC(=O)Nc3ccc(F)cc3)ccc2O1 | inactive
Cc1noc(C)c1NC(=O)Nc1cccc2c1O[C@@H](CN(C)Cc1ccc(Cl)c(Cl)c1)[C@H](C)CN([C@@H](C)CO)C2=O | inactive
CN1C(=O)COc2cc(N)ccc21 | inactive
C[C@H](CO)N1C[C@H](C)[C@@H](CN(C)Cc2ccc(Cl)c(Cl)c2)OCCCC[C@H](C)Oc2ccc(NS(=O)(=O)c3ccccc3)cc2C1=O | active
CCS(=O)(=O)Nc1ccc2c(c1)C(=O)N(C)[C@H]1CC[C@H](CC(=O)N[C@@H]3CCN(Cc4ccccc4)C3)O[C@@H]1CO2 | inactive
CC(C)NC(=O)N(C)C[C@@H]1Oc2c(NS(=O)(=O)c3ccccc3)cccc2C(=O)N([C@H](C)CO)C[C@@H]1C | inactive
